# Results as given in ChEMBL document CHEMBL4888484, “Replenishing the malaria drug discovery pipeline: Screening and hit evaluation of the MMV Hit Generation Library 1 (HGL1) against asexual blood stage Plasmodium falciparum ,using a nano luciferase reporter read-out” (2022).
# About 540 (0.36%) of roughly 150,000 compounds showed an effect of 50% or more. This is one part of the list.
# Test system: Plasmodium falciparum
# Assay: Primary screen in NF54 nanoGlo assay, in single point, at 2uM, 72h; a lower Z score goes with more inhibition
# Assay type: functional, Erythrocyte
# Details: timepoint 72 hour
SMILES,% Inhibition [%],Z score
CCn1ccc2ccc(CNCC3(COC)CCC3)cc21,11,-1.58
CCCNc1nc(C)c(C(=O)OCC)s1,-38,4.45
Cc1nnc(Cn2nnc(C(=O)N3CCC(Cc4ccccc4)CC3)c2C)o1,4,-0.55
Cc1nc(CN2C(=O)COc3cc(S(=O)(=O)N4CCN(C)CC4)c(Cl)cc32)no1,-11,1.29
Cc1nnnn1CCC(=O)N(C)Cc1cc2ccccc2s1,-10,1.17
CC(C)(C(=O)N1CCC[C@H](Cn2cncn2)C1)C1CCOCC1,6,-0.93
CCC1(CC)CCN(C(=O)c2ccc(-n3cnnn3)cc2)CC1,-16,1.96
CN=C(NCc1cnn(C)c1)NC[C@H](C)Oc1ccc(Cl)cc1,-9,1.4
Oc1ccc(CN2CCC(OC[C@H]3CCOC3)CC2)cc1,-5,0.66
CC1CCCC(NC(=O)c2cnn(-c3ccc(F)cc3)n2)C1C (stereo not drawn),-1,0.18
Cc1csc(NC(=O)[C@@H](N)CC2CCCCC2)n1,-5,0.51
CCOc1ccc(-c2nc(Cn3ccnn3)co2)cc1,-6,1.08
O=S(=O)(Oc1cccc(F)c1)c1cnccc1C(F)(F)F,1,-0.09
COc1cccc(OC)c1OCC(O)CNC(c1ccccc1)C1CCCCC1 (stereo not drawn),-8,1.05
Cc1nn(C)c2nccc(NC[C@H]3CCCO3)c12,-12,2.19
COc1ccccc1CCN1C(=O)[C@H](CC(=O)Nc2cccc3[nH]ccc23)N=C1O,7,-0.73
CC[C@H](C)C(=O)NCC(=O)N1CCCC1,-12,1.51
O=C(N[C@H]1[C@H](O)[C@H](O)C[C@@H]1c1ccccc1)c1ccccc1,-3,0.43
O=C(CCc1ccccc1)C(=O)N1C[C@@H]2CC[C@H]1CN(Cc1ccccn1)C2,3,-0.54
CC/C=C/CC(=O)N1C[C@@H]2C(=O)N(C)C(=O)[C@@H]2C1,-10,1.47
OCCn1nc(Cc2cccs2)nc1CCN1CCCCCCC1,-16,2.13

SMILES,% Inhibition [%],Z score
CCc1cc(C(=O)N2CCCC[C@@H]2Cc2ccccc2F)n(C)n1,-5,0.49
O=C([C@@H]1CC(c2cc(F)ccc2F)=NO1)N1CCOCC1,-10,1.55
Cc1cc(NC(=O)NCc2nnc3n2CCOCC3)nn1-c1ccccc1,0,0.06
CC(C)[C@H]1CC[C@H](C(=O)Nc2ncccn2)CC1,-5,0.84
Cc1cc(F)ccc1NC(=O)CC(F)(F)F,-8,0.99
Cc1cccc(-c2nnc3c4ccc(Cl)cc4nc(N4CCN(C(=O)c5ccccc5)CC4)n23)c1,-15,1.65
Cc1ccc(C)c(-c2n[nH]cc2CN2CCN(C)[C@@H]3CS(=O)(=O)C[C@@H]32)c1,3,-0.45
O=C1[C@@H]2CN(C3CCCC3)CCN2C(=O)N1c1ccccc1,-15,1.23
CN(C)c1ccc(CNC(=O)C2CCN(c3cncnc3N3CCOCC3)CC2)cc1,-3,0.64
C[C@@H]1CN(C(=O)c2cccc(OC3CCN(S(=O)(=O)N(C)C)CC3)c2)C[C@H](C)O1,-5,0.87
CCCc1c(C(=O)N(C)CCn2cnnc2)cnn1C1CCCC1,-3,0.49
Cc1ccc(-c2ncc(CN3CCCC4(C3)OCCO4)s2)o1,-5,0.88
CN1C(=O)C2(CCN(C(=O)c3ccc(O)cn3)CC2)c2ccccc21,-4,0.65
C[C@@H](Cn1cccn1)OC(=O)c1ccc2nncn2c1,2,-0.44
O=C(Cc1ccsc1)Nc1cccc(S(=O)(=O)N2CCCC2)c1,-32,3.77
CCc1c(C)cc(C(=O)N2CC[C@](C)(O)[C@H](CC)C2)c(=O)n1C,-5,0.73
CC(c1nnnn1C1CC1)N1CC2(CCC2)C1C1CCCO1 (stereo not drawn),12,-1.56
COCC1(N(C)C(=O)c2cccc(-c3cc(C)nc(C)c3)c2)CC1,-7,1.26
CC1(c2ccccc2)CC(NC(=O)N2CCN(CCO)C(C)(C)C2)C1 (stereo not drawn),-1,0.11
CC(C)(O)CN1CCN(C(=O)CCOc2ccccc2Cl)CC1,4,-0.57
O=C(Nc1ccncc1F)NC1CCCC2OCCC12 (stereo not drawn),-13,1.81

SMILES,% Inhibition [%],Z score
CCC1=C(C(=O)NCc2ccnc(OC3CCC3)c2)CCCO1,-6,0.57
COc1cc(Cl)cc(CN2C[C@H]3CC[C@@H](C2)[C@@H]3N)c1OC(C)C,-10,1.33
Cc1nnc(CNC(=O)C2(c3cccc(Cl)c3)CC(C)C2)s1 (stereo not drawn),-3,0.48
CC(C)CC(=O)N1CCC2(CC1)OC[C@@H](C(=O)N1CCOCC1)N2C(=O)c1ccc(F)cc1,-10,1.32
CC(C)(C)n1ncn(C2CCCC2)c1=O,-11,1.1
FCC[C@H]1CN(c2ncnc(-c3ccccc3)n2)CCO1,-5,0.57
O=C1CC[C@@]2(CCCO2)CCN1Cc1cncn1C1CC1,-13,1.81
C[C@H](NCc1cnns1)c1nc(C2CCCCC2)no1,4,-0.49
C[C@H](N1CCN(Cc2ncccc2C(F)(F)F)CC1)C(F)(F)F,-6,0.52
CC(C)c1nn(C)c2sc(C(=O)Nc3cc(C(=O)O)cs3)cc12,-6,0.63
CC(CCc1ccccc1)NC1CS(=O)(=O)CC1O (stereo not drawn),-6,0.84
CN(Cc1cscn1)[C@H]1CCCC[C@H]1C(F)(F)F,-8,1.34
CCOC(=O)c1ccc(N2CCN(Cc3ccccc3)CC2)c(NC(=O)COc2ccc(Cl)cc2Cl)c1,-11,1.63
CCC1CN(C(=O)C2CCOC2)C(CC)CN1Cc1ccccc1 (stereo not drawn),-9,0.96
CC[C@H](C)N(CC(=O)N1CCCN(c2ccc(-c3cccc(OC)c3)nn2)CC1)C(=O)COC,-14,1.25
CCS(=O)(=O)CCNC(=O)c1ccccc1-c1nc[nH]n1,-5,0.56
C[C@@]12CO[C@@H](CNC(=O)C3CCCC3)O[C@@H]1CC[C@]1(C)[C@@H]2CC[C@@H](O)[C@H]1CC(=O)N1CCCC1,-5,0.63
FC(F)(F)c1c2cnccc2nn1Cc1ccn(-c2ccccc2)n1,-42,4.94
CN1CCC(C(=O)N[C@H]2C[C@H](c3cccc(C(F)(F)F)c3)C2)CC1,0,-0.02
CCN1C(=O)[C@]2(Nc3ccccc3C(=O)N2CCN2CCOCC2)c2ccccc21,-10,1.37
NC(=O)c1ccc(S(=O)(=O)Oc2ccc(-c3ccccc3)cc2Cl)cc1,2,-0.24

SMILES,% Inhibition [%],Z score
Cc1ccc(CN(C(=O)c2ccccc2C)c2cccc(CC(=O)NCc3cccnc3)c2)cc1,2,-0.3
O=C(Cc1ccon1)c1ccc(O)cc1O,-5,0.89
CC(C)(C)C(=O)NC1CCCCCCC1,-11,1.6
c1ccc(-c2nc3c(c(NCCCc4nnn[nH]4)n2)CCNCC3)cc1,-9,1.73
O=C1N(C2CCOCC2)C[C@H]2CN(Cc3ccc(C(F)(F)F)cc3)CCN12,-1,0.19
O=C1NCCCCCN(C(=O)NCc2ccc(F)cc2)[C@H]2CCCC[C@@H]12,-12,1.58
CNC(=O)N1CCC[C@H]1c1nc(CCOCC2CCCC2)no1,-13,1.71
Cc1nc(-c2cc(NC(=O)c3ccccc3)c(C)s2)no1,-11,0.93
Cc1ccc(NC(=O)c2ccccc2O[C@@H](C)C(=O)c2ccc(C)cc2)cc1,-18,2.62
Cc1cccc(N2CCN(CCCNC(=O)C3CCN(c4nc5ccc(C)cc5[nH]4)CC3)C[C@@H]2C)c1,0,0.09
COc1ccccc1CN1CCC2(CC1)c1ccccc1[C@@H](NC(=O)c1ccsc1)[C@@H]2OC,-12,1.49
CCOc1ccncc1S(=O)(=O)N1CCCC[C@@H]1CNC(=O)Nc1ccccc1,-32,3.77
Cc1cccc(-n2cc(-c3ccccc3)nc2NC(=O)CN(C(=O)c2ccco2)C2CC2)c1,-6,0.93
CC(C)c1csc(CCNC(=O)c2c[nH]c(=O)[nH]2)n1,7,-1.01
Cc1nc2cccnc2n1-c1cc(C(=O)NCCc2ccccc2)ccc1Cl,38,-5.43
Cc1ccccc1S(=O)(=O)N1CCN(CC2CC2)[C@@H]2CS(=O)(=O)C[C@@H]21,-8,1.22
CCN1C(=O)NC(=O)C12CCN(Cc1cnc(-c3cccs3)nc1)CC2,5,-1.02
Cc1ccc(NS(=O)(=O)CC2CCC2)c(Cl)c1,-7,1.02
COC[C@@H]1CCC[C@@H]1Nc1cc(C)nc2ccnn12,-3,0.49
CCOC1CC(CCNC(=O)NC2CC(C)C2)C1 (stereo not drawn),-12,1.5
Cc1c(C(=O)N2CCC[C@H]2c2ccc3c(c2)OCCO3)cnn1C,-2,0.35
